Assay results from the RNAGym collection of RNA variant scans (doi:10.1093/nar/gkz1192).
The source gives no read counts; variants with many changes may rest on few reads.

B1: CPEB3 Ribozyme (parent)
chain: UAACAGGGGGCCACAGCAGAAGCGUUCACGUCGCAGCCCCUGUCAGAUUCUGGUGAAUCUGCGAAUUCUGCUGUAUAUCUC

Variants of: B1
Test: self-cleavage, relative activity (ratio to wild type); higher = more cleavage; in vitro, sequencing
How it was run: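 For each CPEB3 ribozyme variant, relative activity is its cleaved/total read fraction divided by the unmutated ribozyme's. Barcoded error-prone PCR libraries were transcribed by T7 RNA polymerase (5 hours, 37°C) and held in DNase I for 15 min before an EDTA stop, with cleavage occurring throughout. Template-switching reverse transcription and Illumina sequencing were used to read the RNAs. A 5-read minimum applied, and results are the mean of three batches.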
Work on U31C G52A A56G yielded a self-cleavage of 0.6. Work on G33A U41A U49C A65G yielded a self-cleavage of 0.04. A35G A64G U69C gave a self-cleavage of 0.96. For G33U U69C U74C, the self-cleavage was 0.13. In the case of U31C U49C U54C, the self-cleavage is reported as 0.13. In the case of C32U U48A A64G, the self-cleavage is reported as 0.15. In the case of A35G U41A U54A, the self-cleavage is reported as 0.58. Work on U31C C40U U43C G52A U54C U72C yielded a self-cleavage of 0.4. Work on C34U A35U U80C yielded a self-cleavage of 0.25. In the case of C32U G55A A56G, the self-cleavage is reported as 0.14. U31C G33A A45G U49C A57G gave a self-cleavage of 0.15. With G33A U41C U49C U60A U80C the self-cleavage was 0.09. In the case of U31C G53A A57G U60A U72A U76A A77G, the self-cleavage is reported as 0.22. Work on U31C U48C U49C yielded a self-cleavage of 0.39. Variant U31C U48A U54C U78C has a self-cleavage of 0.12. In the case of U31C C40U U43A A56G C68U, the self-cleavage is reported as 0.47. C34G U48C U49C U67A gave a self-cleavage of 0.09. Variant C34U U48C U74C C81A has a self-cleavage of 0.59. G33A U43C U54A U74C gave a self-cleavage of 0.48. Variant U31G C40U U41C U69C has a self-cleavage of 0.19. For A35G A56G C62A U80C, the self-cleavage was 0.22. For G33U U43C A77G, the self-cleavage was 0.15. Work on A35G A64G U76A yielded a self-cleavage of 1.27. C34A C40U A64G U66C gave a self-cleavage of 0.09. For G33C U60C U76C, the self-cleavage was 0.13. For G33C U43C U51A A75U, the self-cleavage was 0.09. C34G C40A U43C A64G U76A showed a self-cleavage of 0.12. For C32U U54A U72A, the self-cleavage was 0.12. C32U A56G U80C showed a self-cleavage of 0.14. For A35G U41A C62U, the self-cleavage was 0.15. For A35G U43C A45U U78C, the self-cleavage was 0.6. Work on U31C U54A U58A U80C yielded a self-cleavage of 0.22. With U31C U43A U60A the self-cleavage was 0.28. With U31C U41A C62U U72C the self-cleavage was 0.12. A35G A64G U69C A75G U80C gave a self-cleavage of 0.93. In the case of C32U A35U A47G U66C U72A A77U, the self-cleavage is reported as 0.06. In the case of U31C U51A U76C, the self-cleavage is reported as 1.09. Work on C32A U54C U72C yielded a self-cleavage of 0.07. For U31C U41C A64G C79U, the self-cleavage was 0.61. In the case of A35G U48C U51A U80C, the self-cleavage is reported as 1.27. With A35G A56G A57G the self-cleavage was 1.23. G33C U48C G73C U78C gave a self-cleavage of 0.13. U31C U66C U72A showed a self-cleavage of 0.44. For C32G A57U U72C, the self-cleavage was 0.06. C32U A56U U78C gave a self-cleavage of 0.15. In the case of A35G U58C U67C, the self-cleavage is reported as 0.51. In the case of G33U U41C C50U A56U G63A, the self-cleavage is reported as 0.14. With G33U U51A U78C the self-cleavage was 0.09. Variant U31C C40G U49C A77U has a self-cleavage of 0.19. For U31C U54A A57U, the self-cleavage was 0.42. Work on A35G U41C U54C A64G yielded a self-cleavage of 1.39. U31G A65G U80A gave a self-cleavage of 0.21. Variant C32U A56U A75G has a self-cleavage of 0.13. With A35G C50U A57U U69A the self-cleavage was 0.45. A35G A64U A65G U78A gave a self-cleavage of 0.53. U31C C62A A75G U80C gave a self-cleavage of 0.17. For A35G A75U U78C, the self-cleavage was 1.28. In the case of A35G A75U U78A, the self-cleavage is reported as 1.27. Work on C32U U51G U76C yielded a self-cleavage of 0.22. A35G U51C A64G showed a self-cleavage of 1.28. G33A A35U C40A A47G U74C showed a self-cleavage of 0.06. In the case of A35G U54G U60G A64U U69A, the self-cleavage is reported as 0.51. For C34G U51C G53A U67A U74C, the self-cleavage was 0.19. Variant C32U A35U A45G G63A U67C U76C has a self-cleavage of 0.17. With C32A U60C U78C the self-cleavage was 0.1. In the case of C32U A45G U48C U67C C68A, the self-cleavage is reported as 0.06. Work on G33U U51A U58C yielded a self-cleavage of 0.08. For C34G A35G A64G U78A, the self-cleavage was 0.68. G33C C38U A45U G55U C68A showed a self-cleavage of 0.1. A35G U66C U67A gave a self-cleavage of 0.81. Variant C32A U41C C59U U76C has a self-cleavage of 0.31. Work on U31G A45G U51G A56U A75G U78C yielded a self-cleavage of 0.03. For A35G U60C U69C, the self-cleavage was 0.74. With G33A A47G U80C the self-cleavage was 0.29. With A35G C37U U72C U80C the self-cleavage was 1.31. Work on U31C U49A U54C U69C A77G yielded a self-cleavage of 0.06. A35G G42A U43C U54C A56G A65U gave a self-cleavage of 0.17. Variant G33A U41C C44G A56G G70A has a self-cleavage of 0.06. Variant C34A U48C A65G A75C U80C has a self-cleavage of 0.07. For A35C U41C U54C U60A G63A A77U, the self-cleavage was 0.19. Work on C32A G55C U72A A77U yielded a self-cleavage of 0.05. With G33A U49C U60C A75U the self-cleavage was 0.09. Variant U31G A47U G53A has a self-cleavage of 0.24. U31G A64G U72A showed a self-cleavage of 0.01.
